Test results: PMC2902519, “Impairment of Protein Trafficking upon Overexpression and Mutation of Optineurin” (PLoS ONE, 2010)
Results are given in words; binding and its absence hold for the method and conditions named. In cells and extracts the contact can be indirect. Some results given as binding are weak or reduced against the parent protein; the word gives no strength.

Chains of the proteins cited; added tags and fusions are not shown. Lines headed by an entry give the natural chain unless they say otherwise; changes in a name come on top.
UniProt Q96CV9: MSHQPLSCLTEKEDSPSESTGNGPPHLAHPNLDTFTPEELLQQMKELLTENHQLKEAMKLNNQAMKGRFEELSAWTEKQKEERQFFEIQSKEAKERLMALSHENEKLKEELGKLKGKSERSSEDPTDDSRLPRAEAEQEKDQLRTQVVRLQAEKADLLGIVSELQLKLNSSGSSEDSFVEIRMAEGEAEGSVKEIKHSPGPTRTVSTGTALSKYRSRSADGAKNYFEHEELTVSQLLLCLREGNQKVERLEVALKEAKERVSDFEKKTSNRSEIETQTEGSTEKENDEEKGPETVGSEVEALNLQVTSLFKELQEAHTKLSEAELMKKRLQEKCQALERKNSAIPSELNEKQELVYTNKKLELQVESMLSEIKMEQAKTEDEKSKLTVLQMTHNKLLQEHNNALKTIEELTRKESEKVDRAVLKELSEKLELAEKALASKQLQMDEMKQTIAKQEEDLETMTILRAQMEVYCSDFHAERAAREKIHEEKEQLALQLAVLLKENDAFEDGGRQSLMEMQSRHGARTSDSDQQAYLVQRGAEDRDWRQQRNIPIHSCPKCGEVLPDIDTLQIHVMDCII
UniProt P20339: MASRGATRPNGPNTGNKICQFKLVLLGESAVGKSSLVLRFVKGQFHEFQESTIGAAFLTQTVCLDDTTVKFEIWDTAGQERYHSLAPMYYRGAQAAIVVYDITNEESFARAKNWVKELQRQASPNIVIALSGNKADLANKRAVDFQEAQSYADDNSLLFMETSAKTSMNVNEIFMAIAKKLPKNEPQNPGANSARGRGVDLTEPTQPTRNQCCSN
UniProt Q99376: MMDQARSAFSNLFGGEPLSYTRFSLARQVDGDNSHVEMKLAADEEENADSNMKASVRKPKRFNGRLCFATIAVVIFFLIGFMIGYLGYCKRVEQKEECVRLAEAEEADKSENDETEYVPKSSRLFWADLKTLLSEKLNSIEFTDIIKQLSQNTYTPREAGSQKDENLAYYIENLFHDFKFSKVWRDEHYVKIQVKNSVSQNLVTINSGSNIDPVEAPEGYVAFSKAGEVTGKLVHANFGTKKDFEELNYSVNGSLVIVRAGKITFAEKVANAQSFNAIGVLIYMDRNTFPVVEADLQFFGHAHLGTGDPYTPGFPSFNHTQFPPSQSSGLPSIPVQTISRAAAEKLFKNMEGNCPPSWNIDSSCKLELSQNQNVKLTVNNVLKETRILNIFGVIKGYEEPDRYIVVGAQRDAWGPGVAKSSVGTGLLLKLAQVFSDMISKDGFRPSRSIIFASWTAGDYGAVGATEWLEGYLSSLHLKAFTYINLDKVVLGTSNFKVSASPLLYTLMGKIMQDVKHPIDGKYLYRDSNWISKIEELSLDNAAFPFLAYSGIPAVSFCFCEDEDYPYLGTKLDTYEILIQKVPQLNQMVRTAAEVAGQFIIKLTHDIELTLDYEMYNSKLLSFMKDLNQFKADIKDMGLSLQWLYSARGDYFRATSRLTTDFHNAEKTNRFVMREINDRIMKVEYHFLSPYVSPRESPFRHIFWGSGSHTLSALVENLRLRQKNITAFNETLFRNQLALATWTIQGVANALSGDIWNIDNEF
UniProt P51149: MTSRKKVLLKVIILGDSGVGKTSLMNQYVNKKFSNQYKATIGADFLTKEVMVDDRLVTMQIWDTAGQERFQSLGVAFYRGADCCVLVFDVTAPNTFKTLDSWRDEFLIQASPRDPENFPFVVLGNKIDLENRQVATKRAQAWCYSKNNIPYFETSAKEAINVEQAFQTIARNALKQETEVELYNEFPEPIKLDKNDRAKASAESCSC
UniProt P62491: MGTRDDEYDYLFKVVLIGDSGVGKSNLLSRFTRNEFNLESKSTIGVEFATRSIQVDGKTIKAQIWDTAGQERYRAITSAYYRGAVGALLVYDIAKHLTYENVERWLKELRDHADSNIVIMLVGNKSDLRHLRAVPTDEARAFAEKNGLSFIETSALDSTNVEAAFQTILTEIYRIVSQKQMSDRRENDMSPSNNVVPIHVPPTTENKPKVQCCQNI

What was measured:
[1] = target: FLAG-tagged E50K optineurin (FLAG-OPTN E50K) (human) (UniProt Q96CV9); assay: co-IP; RPE cells co-transfected 16 h with OPTN-His and FLAG-OPTN of the same variant (WT, E50K or L157A); lysate precipitated with polyclonal anti-His; eluates blotted with monoclonal anti-FLAG and anti-His
[2] = target: FLAG-tagged L157A optineurin (FLAG-OPTN L157A) (human) (UniProt Q96CV9); assay: as above
[3] = target: FLAG-tagged wild type optineurin (FLAG-OPTNWT) (human) (UniProt Q96CV9); assay: co-IP; RPE cells co-transfected with pTarget-FLAG-OPTN and pEGFP-N1 or pGFP-Rab8, -Rab4, -Rab5, -Rab11 or -Rab7; lysate in IP buffer (50 mM Tris-HCl pH 7.5, 150 mM NaCl, 1% Nonidet P40, 0.5% sodium deoxycholate) precipitated with rabbit polyclonal anti-optineurin; eluates blotted with anti-FLAG and anti-GFP
[4] = target: wild type optineurin-green fluorescence protein (OPTNWT-GFP) (human) (UniProt Q96CV9); assay: co-IP; Tet-on inducible RGC5 cells, doxycycline 1 ug/ml 16 h, expressing OPTNWT-, OPTN_(E50K)- or OPTN_(L157A)-GFP; lysate precipitated with polyclonal anti-GFP; eluates blotted with monoclonal anti-Rab8 or anti-TfR and anti-GFP; band intensity ratio relative to wild type

Row | Substance | binding [3] | also measured
1 | FLAG-tagged E50K optineurin (FLAG-OPTN E50K) (from UniProt Q96CV9 1-577) |  | binding [1]: binds
2 | FLAG-tagged L157A optineurin (FLAG-OPTN L157A) (from UniProt Q96CV9 1-577) |  | binding [2]: binds
3 | GFP-Rab5 (from UniProt P20339 1-215) | no binding | 
4 | endogenous transferrin receptor (TfR) of RGC5 cells (from UniProt Q99376 1-761) |  | binding [4]: binds

Second part, led by results:

Row | binding [3] | Substance | also measured
5 | no binding | GFP-Rab7 (from UniProt P51149 1-207) | 
6 | no binding | GFP-Rab11 (from UniProt P62491 1-216) | 
